Experimental data published in ChEMBL document CHEMBL1201862, “PubChem BioAssay data set” (2004).
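Briefly, cells in 96-well plates were exposed to five compound concentrations for 48 h, and endpoints were estimated by linear interpolation. Abbreviation: GI50, concentration required for 50% inhibition of growth.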 Activity calls are given as the source filed them. No stated cut-off is given here; in the data, active = GI50 up to about 1.1 µM and inactive = higher. Square brackets hold non-standard residues; d marks the D form. Peptide text beside a SMILES is read from it. * marks the point of attachment. Bn2Val = CC(C)[C@@H](C(=O)*)N(Cc1ccccc1)Cc1ccccc1; NH(3,4-diMeO-benzyl) = COc1ccc(CN*)cc1OC; NMeV = CN[C@H](C(=O)O)C(C)C; dNMeA = CN[C@H](C)C(=O)O

What follows are compounds tested on NCI-H322M (assay: DTP human tumour cell line panel, 48 h).

| Compound | GI50 |
| --- | --- |
| NC(=S)/N=C(/c1nc2ccc(Cl)cc2nc1O)C(O)c1ccccc1Cl (stereo not given) | inactive: > 100 µM |
| O=S(=O)(O)c1cc(/N=N/c2cc(S(=O)(=O)O)c3ccccc3c2O)ccc1/C=C/c1ccc(/N=N/c2cc(S(=O)(=O)O)c3ccccc3c2O)cc1S(=O)(=O)O | inactive: > 459 µM |
| COc1ccc(NC(=S)c2ccc(CN3CCCCC3)s2)cc1 | inactive: 16.5 µM |
| CCC(=O)OC[n+]1ccc2c(C)c3[nH]c4ccc(OC)cc4c3c(C)c2c1 | active: 0.0931 µM |
| CC[C@H](C)C(=O)O[C@H]1C[C@@H](C)C=C2C=C[C@H](C)[C@H](CC[C@@H]3C[C@@H](O)CC(=O)O3)[C@H]21 [LOVASTATIN] | inactive: > 30 µM |
| COc1ccc(/C=N/N=C(\N)NO)c(O)c1 | inactive: > 10 µM |
| O=C1Nc2c(Cl)cc(Cl)cc2/C1=N/NC(=O)c1ccncc1 | inactive: 58.1 µM |
| CCO[C@@]1(COCc2ccccc2)OC(=O)C[C@@H]1N1C(=O)OC[C@@H]1c1ccccc1 | inactive: > 100 µM |
| O=c1[nH]c2ccsc2c(=O)n1COCc1ccccc1 | inactive: > 100 µM |
| COc1ccc(NC(=S)c2ccc([N+](=O)[O-])o2)cc1 | inactive: 2.89 µM |
| Cc1c(C)c([N+](=O)[O-])c2c(c1N)C(=O)c1ccccc1C2=O | inactive: > 100 µM |
| O=C(O)CC(CC(=O)O)n1cccc1 | inactive: > 100 µM |
| Cc1cn(CC2=NCC(O)CN2)c(=O)[nH]c1=O (stereo not given) | inactive: > 100 µM |
| CC[C@@]1(O)C(=O)OCc2c1cc1n(c2=O)Cc2c-1nc1ccccc1c2/C=N/NC(=O)c1ccc(N)cc1 | inactive: 10.4 µM |
| CN1N=C(c2ccncc2)OC1c1ccccc1F (stereo not given) | inactive: > 100 µM |
| CCN1C/C(=C\c2cc(OC)c(OC)c(OC)c2)C2=NN(c3ccccc3)C(c3cc(OC)c(OC)c(OC)c3)C2C1 (stereo not given) | inactive: 5.85 µM |
| C[C@]12CC/C(=N\OCCN3CCCC3)C=C1CCC1C2CC[C@@]2(C)C1CC[C@]2(C)O (stereo not given in full) | inactive: 9.23 µM |
| CC(=O)O/C=C1/C[C@H]2[C@@H]3CCC4CC(C(C)=O)CC[C@]4(C)[C@H]3CC[C@]2(C)C1=O (stereo not given in full) | inactive: 60.5 µM |
| CC(SC1=CC(=O)c2c(O)ccc(O)c2C1=O)C(=O)O (stereo not given) | inactive: > 100 µM |
| C/C(=N\Nc1ccc2ccccc2n1)c1ccccc1O | inactive: > 100 µM |
| CCCC(=O)OCC1OC(n2cc(F)c(=O)[nH]c2=O)CC1O (stereo not given) | inactive: 3.1 µM |
| CC1(C)O[C@H]2[C@H](O)C[C@](O)(CO)C[C@H]2O1 | inactive: > 100 µM |
| O=C(Nc1ccc(S(=O)(=O)Nc2ncccn2)cc1)c1c2ccccc2nc2ccccc12 | inactive: > 100 µM |

| Compound | GI50 |
| --- | --- |
| CCCCc1ccc(Nc2nc(Cl)c3ncn(C4CC(Oc5ccc(C)cc5)C(COc5ccc(C)cc5)O4)c3n2)cc1 (stereo not given) | inactive: > 100 µM |
| CN1CCn2c(Br)ccc2C1=O | inactive: > 100 µM |
| CNC(=O)C(C)C1C(=O)/C(=C(O)/C=C\C(C)=C\C(C)C2OC3(C)OC(C=CC34CO4)C2C)C(=O)N1C1CCC(O)C(C)O1 (stereo not given) | inactive: > 100 µM |
| O=C1NC(Cc2c[nH]c3ccccc23)C(=O)N2C(c3ccccc3)c3[nH]c4ccccc4c3C[C@@H]12 (stereo not given in full) | inactive: 26.4 µM |
| NCCCNC1(c2cc3ccccc3s2)CCCCC1 | inactive: 8.63 µM |
| CC(=O)c1ccc2c3c1[C@H]1O[C@H]1c1cccc(c1-3)[C@@H]1O[C@H]21 | inactive: 3.57 µM |
| CC1OC2/C=C\CC(O)C(C)(C)C3CCC(C)C4(O3)O[B-]35OC(C(=O)OC1C2)C1(OC(CCC1C)C(C)(C)C(O)C/C=C\C1CC(OC(=O)C4O3)C(C)O1)O5 (stereo not given) | inactive: 3.38 µM |
| S=C(N/N=C/c1ccccn1)N1CCCCC1 | active: < 0.01 µM |
| CC1CC(C)(O)C2C3(C)CCCC2(COC3=O)C12CCC1(CCOC1=O)O2 (stereo not given) | inactive: > 250 µM |
| COC(=O)[C@@H]1CN(C(=O)CCc2ccccc2)C(=O)N1C(=O)OCc1ccccc1 | inactive: > 100 µM |
| COC(=O)Cc1cc(=O)oc2c1C(=O)CCC2 | inactive: > 100 µM |
| CN(C)CCNC(=O)c1cccc(NC(=O)c2ccccc2)c1[N+](=O)[O-] | inactive: 67.5 µM |
| CC(C)(CO)N1C(=O)c2ccccc2C1(O)c1ccc(Cl)cc1 (stereo not given) | inactive: > 100 µM |
| O=C1/C(=C/c2cccs2)N=C(c2ccccc2)N1c1nc2ccccc2s1 | inactive: 69.3 µM |
| CC(C)CC(NC(=O)C(Cc1ccccc1)NC(=O)C(Cc1c[nH]c2ccccc12)NC(=O)CNC(=O)C(N)Cc1ccc(O)cc1)C(=O)O (stereo not given) (H-YGWFL-OH; configuration not given here) | inactive: > 100 µM |
| CC(=O)/C(=C\I)c1ccccc1 | inactive: 12.7 µM |
| CC(=O)OCCC1c2ccccc2-n2nc(-c3ccccc3)c(O)c21 (stereo not given) | inactive: 16.1 µM |
| NC(Cc1cc(Br)c(O)c(Br)c1)C(=O)O (stereo not given) | inactive: > 100 µM |
| OC(CCN1CCCCC1)(c1ccccc1)c1ccccc1 [PRIDINOL] | inactive: > 100 µM |
| CC(C)(C)C1CCN(C(=O)c2ccccc2)CC1 | inactive: > 100 µM |
| Cc1cc(C)c2c(=O)n(CN3CCC(O)(c4ccccc4)CC3)sc2n1 | inactive: > 100 µM |
| CC1(C)N=C(N)N=C(N)N1c1ccc(OCC(=O)Nc2cccc(S(=O)(=O)F)c2)c(Cl)c1 | inactive: 24.3 µM |
| N#Cc1ccc([N+](=O)[O-])cc1NC(N)=S | inactive: > 100 µM |

| Compound | GI50 |
| --- | --- |
| Cc1ccc(/C=N/Nc2cnccn2)s1 | inactive: > 100 µM |
| Cc1cc(C)cc(C(=N)c2ccccc2Cc2cccc3ccccc23)c1 | inactive: 16.8 µM |
| COC(=O)C1=C(O)C(C(=O)OC)C2CC(=O)CC1C2(C)C (stereo not given) | inactive: > 100 µM |
| N#Cc1c2ccccc2cn1-c1ccc(F)cc1 | inactive: 31.6 µM |
| C#CCCCC(=O)N(C(=O)C[S+]([O-])CC)c1ccccc1 (stereo not given) | inactive: > 100 µM |
| O=C(O)COc1ccc(C(=O)/C(SS/C(C(=O)c2ccc(OCC(=O)O)c(Cl)c2Cl)=C2\C=C(c3ccc(F)cc3)SS2)=C2/C=C(c3ccc(F)cc3)SS2)c(Cl)c1Cl | inactive: 39.7 µM |
| NCCc1ccc2c(c1)C(=O)c1c(O)ccc(O)c1C2=O | inactive: 5.65 µM |
| COC(=O)c1ccc(NCc2cc(OC)ccc2OC)cc1 | inactive: 80 µM |
| CN(C)/C=C/C(=CC=[N+](C)C)/C=C/N(C)C.[O-][Cl+3]([O-])([O-])[O-] | inactive: > 100 µM |
| O=C1/C(=C\c2ccc(Cl)cc2Cl)Sc2scc(-c3cccc([N+](=O)[O-])c3)[n+]21 | inactive: 17.7 µM |
| C/C=C/C=C/c1nc(C#N)c(N)o1 | inactive: > 100 µM |
| O=c1n(Cc2ccccc2)c2ccccc2n1CC1CS1 (stereo not given) | inactive: > 100 µM |
| CC(=O)O/N=C(/C)c1ccccc1O | inactive: > 100 µM |
| O=C1CCC[C@H]2O[C@@H](COCc3ccccc3)C[C@@H]12 | inactive: > 100 µM |
| COc1ccccc1-n1c(=O)n(C)c(=O)n1C(C)(C)C | inactive: > 100 µM |
| O=C(O)c1ccccc1C1CCCc2c1[nH]c1ccccc21 (stereo not given) | inactive: > 100 µM |
| Cc1ncc([N+](=O)[O-])n1CC(O)Cn1ccnc1[N+](=O)[O-] (stereo not given) | inactive: > 100 µM |
| Cc1c(C=C(C#N)C#N)c(=O)n(C)c(=O)n1C | inactive: > 100 µM |
| O=C(NC12CC3CC(CC(C3)C1)C2)C(=O)c1c[nH]c2ccc(Cl)cc12 | inactive: 86.9 µM |
| O=C(CCC(=O)N/N=C/c1ccccc1O)N/N=C/c1ccccc1O | inactive: > 100 µM |
| CCOC(=O)C1C2CCC1CC(=NNc1ccc([N+](=O)[O-])cc1[N+](=O)[O-])C2 (stereo not given) | inactive: > 50 µM |
| CC(C)(C)c1ccc2c(c1)C(=O)c1ccccc1C2=O | inactive: > 100 µM |
| CCOC(=O)NC(Nc1ccc(C)cc1)(C(F)(F)F)C(F)(F)F | inactive: > 100 µM |

| Compound | GI50 |
| --- | --- |
| Cc1nc2c(Br)cc(Br)cc2c(=O)n1-c1ccccc1NC1OC(CO)C(O)C(O)C1O (stereo not given) | inactive: > 100 µM |
| O=C(O)/C=C/C=C/c1ccc2c(c1)OCO2 [PIPERIC ACID] | inactive: > 100 µM |
| COc1ccc(/C=C2/CCS(=O)(=O)c3ccc(C)cc3C2=O)cc1OC | inactive: 14.4 µM |
| COc1ccc(CNC(=O)[C@@H](C)N(C)C(=O)[C@@H]2CCCN2C(=O)[C@H](C(C)C)N(C)C(=O)[C@@H](NC(=O)[C@H](C(C)C)N(Cc2ccccc2)Cc2ccccc2)C(C)C)cc1OC (Bn2Val-V[NMeV]P[dNMeA]-{NH(3,4-diMeO-benzyl)}) | inactive: 13.2 µM |
| Nc1nc(N)c2nc(CN(C=O)c3ccc(C(=O)O)cc3)cnc2n1 | inactive: 24 µM |
| CC[C@@]1(O)C(=O)OCc2c1cc1n(c2=O)Cc2c-1nc1ccccc1c2/C=N\NC(=O)C[n+]1ccccc1 | inactive: 5.52 µM |
| CCCN1C(=O)CN(S(=O)(=O)c2ccc(Cl)cc2)C1=O | inactive: > 100 µM |
| NC(=O)CC[C@H]1C(=O)N=C(N)N1C(=O)OCc1ccccc1 | inactive: > 100 µM |
| CCCCN(C)CC(C(C)=O)C(c1ccccc1)c1c(O)c2ccccc2oc1=O (stereo not given) | inactive: > 100 µM |
| COc1ccc2c(C)cc(N/N=C/c3sccc3C)nc2c1 | active: 0.217 µM |
| FC(F)(F)c1ccc(/C=N/C23CC4CC(CC(C4)C2)C3)cc1 | inactive: > 100 µM |
| O=[N+]([O-])c1ccc(/C=C\c2ccc3c(c2)OCO3)c([N+](=O)[O-])c1 | inactive: 16.6 µM |
| O=[N+]([O-])c1ccc(/C=N\N=c2/ccc([N+](=O)[O-])c[nH]2)cc1 | inactive: > 100 µM |
| O=C1NCCCC12CCCNC2=O | inactive: > 100 µM |
| FC(F)(F)c1cccc(COCCN2CCN(Cc3cccc(C(F)(F)F)c3)CC2)c1 | inactive: 18.5 µM |
| ClC1=C(Cl)C2OC3C=CCC3OC2C(Cl)=C1Cl (stereo not given) | inactive: > 100 µM |
| Cc1nn(-c2ccccc2)c2c1C(c1ccc(Cl)cc1)NC(=S)N2 (stereo not given) | inactive: 28.7 µM |
| O=C1c2cccnc2S(=O)(=O)N1c1ccc(Br)cc1 | inactive: > 100 µM |
| COc1ccc(C2OC(N)=C(C#N)C3=C2CCCC3C)cc1OC (stereo not given) | inactive: > 100 µM |
| COc1ccccc1/N=N/C(=N/NC(=O)c1ccc(C)cc1)c1ccc(N(CCC#N)CCC#N)cc1OC | inactive: 46.9 µM |
| Cc1cccc2c1CC(Cc1ccccc1C(=O)O)C2=O (stereo not given) | inactive: > 100 µM |
